# The list shows a part of the results.
# Tested on: PfAP2-HC AP2 domain (GST-tagged)
# Test: gcPBM binding intensity (ln(normalized median fluorescence intensity)); higher = stronger DNA binding
# How it was run: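 Using an Agilent 4 × 180k array, primer-extended double-stranded 36-bp intergenic genomic probes and negative controls were exposed for 1 h to GST-fused P. falciparum DNA-binding domains expressed in E. coli. Binding was carried out in 1× PBS with 1% milk, 0.2 mg/ml BSA, 0.5% salmon testes DNA and 0.03% Triton X-100, and protein was detected with Alexa488 anti-GST antibody and a 488 nm scan. Binding intensity is the highest Masliner-normalised natural-log median intensity across replicate spots of either probe orientation.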
row,Sequence,gcPBM binding intensity (ln)
1,TATTATATATTATATAGTACATATTTATGTAAGAGG [XGTACX_site3099],9.88
2,CAAAATTAATAAGTCACACACACATATATAATATAT [CACACA_site798],11
3,TATAAAAATATATGCACACAAATAAAAAATTATATA [CACACA_site3629],9.91
4,TATATTTATACAATATGTACATATTATATATATATA [XGTACX_site3098],9.65
5,ATGGTATCTTTTAGAAGTACATCATGATAATAATTT [XGTACX_site5544],9.4
6,GATCATAATATTTAAAAGAATATATATAAAAAGGAA [XGTACX_negctrl_site310],9.64
7,GTATTAATTTATATATGTACATATGTGATATATATA [XGTACX_site5825],9.74
8,AAAATAATTATGAATTGTACAGGTTTTTTTTTTTTT [XGTACX_site220],9.63
9,AAAAAATTTTTAAGCACACACATAGATAATATATAT [CACACA_site1555],10.1
10,GGAAAAAAAAAAAAAAAACACACGGTACATTCAAAC [CACACA_site2715],9.75
11,TCTACAATTATAATTACACACTATAAAAAAGAAAGA [CACACA_site2984],9.66
12,AAAAATAGGAACCAATATCCAACGTGACTTTATAAT [CACACA_negctrl_site1011],9.77
13,ATTTTTTTTTTTTTTTTTTTTTTTTTTTGATTTGTG [CACACA_negctrl_site1391],9.13
14,TGAAAAAATATAAAATATAAAATAAAAAATATAAAA [GTGCAC_negctrl_site536],9.71
15,AATAAATAAATATATACACACATATATATATAATAT [CACACA_site921],9.88
16,TACAATCTAAAATACACACACACAAACATATATTTA [CACACA_site3702],10.7
17,ATATTAATATATATGTTTTATTACCATTTTATGTAT [CACACA_negctrl_site1761],9.77
18,AAGATATATATAGAAAGTACTTATATTTGTATAATT [XGTACX_site8855],9.89
19,ATGGTTTAGTTATATACACACTCGAAAATAACGACA [CACACA_site7520],9.65
20,TATAAAAATATATTTACACACTATATATATCGAAAG [CACACA_site1700],9.69
21,ATATATTTTCAAAAAAGTAAATCAAAATAAATATAT [TGCATGCA_negctrl_site319],9.22
22,TCCAAATACAACTACACACAAACAAAAATTATATAT [CACACA_site881],10
23,AAAATTTTTCTTAAAGCATGCACAATTAAGAAGACG [TGCATGCA_site883],9.55
24,TTTTTTTTAAGAGATAGTACATAAATATTATAATAT [XGTACX_site4685],9.33
25,AAATAAAATTTTATGTGTACGCAAAAAGTTGTAAGC [XGTACX_site8911],9.84
26,TTAAAATTAATTCACCAGTATTAAAATAAAAACGAA [CACACA_negctrl_site1428],9.6
27,CATATATATATATATACACACATATATATTTTCTTT [CACACA_site1457],10.1
28,AAAAAAAAAAATATCACACACACATAAATATAAACA [CACACA_site7138],10.5

row,Sequence,gcPBM binding intensity (ln)
1,AAAGTAGGCTTATATGCACACTTTGAAATATTATAA [CACACA_site5117],9.78
2,ATTATACAAAATGGTAAGGAAAAGGAAATTTTTTTT [CACACA_negctrl_site1090],9.59
3,CAATATTATATATATACACACATAATCTGTAAAAAC [CACACA_site1068],9.83
4,TTATTTTATTTTAAAAAAAACAATATAAATTCAAAG [GTGCAC_negctrl_site57],9.09
5,ATAAAAATTGATTATACACACGCGCACCCACAACAA [CACACA_site3536],10.3
6,TATTTATAAATTTACACACACACATGGGAACATAAA [CACACA_site5111],10.2
7,ATGTCAAATTTTTGTGCACACATATATAGTTATTAT [CACACA_site2242],10.1
8,TATATATATCAGCAATGTACACAATGCATATTATAT [XGTACX_site4836],9.59
9,TAAGGATAAATAAAATGAAATGAAATAAATAAATGA [XGTACX_negctrl_site539],9.67
10,TATTGTATTTAATAAACACACAATATTAAAAATATA [CACACA_site4725],9.5
11,CATATATACACATACACACACACACGGACACGCACA [CACACA_site6910],10.5
12,ATACACATATATGTGTGTACTCACCTTTTAATATGA [XGTACX_site4349],9.89
13,ATCTATATCTATAATACACACTAAAGTAACAGAATA [CACACA_site7370],9.69
14,GTATCTCATTATTCGTGTACTAAACACATAAAAATA [XGTACX_site2262],9.58
15,GATTTACAACACGAACGTACAGAACAAAAAGGAAAA [XGTACX_site6501],9.71
16,TGTTTAAAGGAAAAGGAGTAGTCTATTATATTATCT [CACACA_negctrl_site858],9.58
17,AATGTAAAAGTAAACACACACATATATATATACATA [CACACA_site2484],10.2
18,TATAAAAATAAAAAAAGTACACATAAAAATATATAT [XGTACX_site5189],9.78
19,AACATTTATAAATATTGTACATATAGATTTATATAT [XGTACX_site2662],9.68
20,AAAATAAAATAACGTTGTACAACATCATTTCTATAT [XGTACX_site5080],9.65
21,AACAATATATTGAATAGTACATATATATAAACATAT [XGTACX_site2811],9.83
22,TTTAATTTGTTATACACACACAAAAAAAGTTATAAA [CACACA_site7779],9.84
23,TCTTTCTTATATTTATATAATTATATTTATTTTATA [GTGCAC_negctrl_site300],9.85
24,GGAATACAGGAAAAAAGTACAGAAAATGGAATATTA [XGTACX_site5053],9.62
25,ATATAATGTTATAGAAGTACATGAAATACTTATTTA [XGTACX_site8850],9.58
26,CATATAAAAAGACACACACACACATATATATATATA [CACACA_site940],10.8
27,TTTTTTTTTCCCGTAAATATTGAGACAACCATAATG [CACACA_negctrl_site41],9.28

# Source: the supplement of paper PMC11417369
